Where “and” joins values, the source holds several entries; their conditions need not be identical. Equal entries are not always repeated. This list was built around the results that the source calls inconclusive (neither active nor inactive); the mix of calls is not that of the screen. Potencies of inconclusive entries are left out as doubtful fits. Calls of active or inactive are those of the source. Unless noted, calls follow the shape of the dose curve; as a rule, active = well fitted activation curve with a large enough effect in the repeat runs; inconclusive = weak or mixed curves, or effect the other way; inactive = no such curve, though single readings can be large or run the other way.
Assay: qHTS assay to identify small molecule antagonists of the estrogen related receptor signaling pathway with the pleiotropic PPARgamma coactivator (PGC) from Tox21 10K library (AID 1224841; call rule not given here; also: actives are mostly falling curves and most rising ones were filed inactive; nearly all actives have a fitted effect of over 50% in size)
Settings: PGC/ERR reporter cell line, ONE-Glo luciferase, 18 h; series mostly up to 92.4 µM
In short: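 In the PGC/ERR line, DMSO solutions of test chemicals are pin-delivered to 2,000 cells/well six hours after dispensing. Following eighteen hours' incubation, One-Glo reagent is added and luminescence recorded.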
In the case of `CCCCC(CC)COC(=O)C(C#N)=C(c1ccccc1)c1ccccc1` (stereo not drawn), the Potency was inconclusive [falling, partial curve].
In the case of `Nc1ccc(F)cc1`, the Potency was “inactive”.
With `O=C(O)CN(CCN(CC(=O)O)CC(=O)O)CCN(CC(=O)O)CC(=O)O` the activity, negative = inhibition was inactive: 0.933% [at 19 µM].

Assay: qHTS assay to identify small molecule agonists of the estrogen related receptor signaling pathway with the pleiotropic PPARgamma coactivator (PGC) from Tox21 10K library (AID 1224842); also: nearly all actives have a fitted effect of over 15% in size
Settings: PGC/ERR reporter cell line, luciferase ONE-Glo, 18 h; series mostly up to 92.4 µM
In short: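 PGC/ERR reporter cell line, 2,000 cells per well, incubated 6 h at 37 C before 23 nL compound in DMSO was added. After 18 h at 37 C, One-Glo luminescence read following 30 min at room temperature.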
With `CC/C=C\CCCCCO` the Potency was inconclusive [activator, single point].
In the case of `CC(C)C[C@@H](N)C(=O)O`, the activation was inactive: -0.0839% [at 19 µM].
In the case of `BrCCOc1ccccc1`, the Potency was “inactive”.
With `O=C(Nc1ccccc1)Nc1ccccc1` the Potency was active: 10.9 µM.
In the case of `NC(=O)c1ccc([N+](=O)[O-])cc1`, the Potency was “inactive”.
With `Cc1ncc(CSSCc2cnc(C)c(O)c2CO)c(CO)c1O` the Potency was “inactive”.
In the case of `CCCCCCCCSCCO`, the Potency was “inactive”.
With `CC(CN(C)C)C(C)(O)Cc1ccc(Cl)cc1` (stereo not drawn) the Potency was “inactive”.
In the case of `NC1CCN(c2nc3c(cc2F)c(=O)c(C(=O)O)cn3-c2ccc(F)cc2F)C1` (stereo not drawn), the Potency was inconclusive [activator, partial curve].
For `Cc1cc(-n2nc3ccc(Cl)cc3n2)c(O)c(C(C)(C)C)c1`, the Potency was “inactive”.
In the case of `CNC[C@H](O)c1ccc(O)c(O)c1`, the Potency was active: 1.54 µM and active: 1.16 µM.
For `CCCCCCCCCCCC(C)=O`, the Potency was “inactive”.
With `CCCCCCCC(=O)OCCCCCC` the Potency was “inactive”.
In the case of `O=Cc1ccc([N+](=O)[O-])cc1`, the Potency was inconclusive [activator].
In the case of `CCOC(=O)[C@H](CCc1ccccc1)N[C@@H](C)C(=O)N1CCC[C@H]1C(=O)O`, the Potency was “inactive”.
% is scaled to controls: 0 for no effect and ±100 for the full control effect; potency is read from the fitted curve at half-maximal effect; tags tell the direction and shape of the fitted curve.
